This is one part of the list.
What was measured:
Assay in all cases: glycan array binding signal (z-score within array); higher = stronger binding
Details in all cases: glycan notation: IUPAC condensed, linker removed
[1] = molecular target: Gal(b1-4)GlcNAc(b1-3)Gal(b1-4)GlcNAc(b1-3)Gal(b1-4)GlcNAc(b1-3)Gal(b1-4)GlcNAc(b1-2)Man(a1-3)[Gal(b1-4)GlcNAc(b1-3)Gal(b1-4)GlcNAc(b1-3)Gal(b1-4)GlcNAc(b1-3)Gal(b1-4)GlcNAc(b1-2)Man(a1-6)]Man(b1-4)GlcNAc(b1-4)[Fuc(a1-6)]GlcNAc
How it was run: (§1)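 The binding signal is a Z-score computed within each array and averaged over linkers. Arrays of the same protein sequence at different concentrations or buffers were also averaged together. Data originate from 3228 arrays in the Consortium for Functional Glycomics database, kept only where the protein sequence was available.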

[2] = molecular target: Gal(b1-4)GlcNAc(b1-3)Gal(b1-4)GlcNAc(b1-3)Gal(b1-4)GlcNAc(b1-3)Gal(b1-4)GlcNAc(b1-2)[Gal(b1-4)GlcNAc(b1-3)Gal(b1-4)GlcNAc(b1-3)Gal(b1-4)GlcNAc(b1-3)Gal(b1-4)GlcNAc(b1-6)]Man(a1-6)[Gal(b1-4)GlcNAc(b1-3)Gal(b1-4)GlcNAc(b1-3)Gal(b1-4)GlcNAc(b1-3)Gal(b1-4)GlcNAc(b1-2)Man(a1-3)]Man(b1-4)GlcNAc(b1-4)[Fuc(a1-6)]GlcNAc
How it was run: as §1

[3] = molecular target: Gal(b1-4)GlcNAc(b1-3)Gal(b1-4)GlcNAc(b1-3)Gal(b1-4)GlcNAc(b1-3)Gal(b1-4)GlcNAc(b1-3)Gal(b1-4)GlcNAc(b1-2)Man(a1-3)[Gal(b1-4)GlcNAc(b1-3)Gal(b1-4)GlcNAc(b1-3)Gal(b1-4)GlcNAc(b1-3)Gal(b1-4)GlcNAc(b1-3)Gal(b1-4)GlcNAc(b1-2)Man(a1-6)]Man(b1-4)GlcNAc(b1-4)GlcNAc
How it was run: as §1

[4] = molecular target: Gal(b1-4)GlcNAc(b1-3)Gal(b1-4)GlcNAc(b1-3)Gal(b1-4)GlcNAc(b1-3)Gal(b1-4)GlcNAc(b1-3)Gal(b1-4)GlcNAc(b1-2)Man(a1-3)[Gal(b1-4)GlcNAc(b1-3)Gal(b1-4)GlcNAc(b1-3)Gal(b1-4)GlcNAc(b1-3)Gal(b1-4)GlcNAc(b1-3)Gal(b1-4)GlcNAc(b1-2)Man(a1-6)]Man(b1-4)GlcNAc(b1-4)[Fuc(a1-6)]GlcNAc
How it was run: as §1

[5] = molecular target: Gal(b1-4)GlcNAc(b1-3)Gal(b1-4)GlcNAc(b1-3)Gal(b1-4)GlcNAc(b1-3)Gal(b1-4)GlcNAc(b1-3)Gal(b1-4)GlcNAc(b1-2)[Gal(b1-4)GlcNAc(b1-3)Gal(b1-4)GlcNAc(b1-3)Gal(b1-4)GlcNAc(b1-3)Gal(b1-4)GlcNAc(b1-3)Gal(b1-4)GlcNAc(b1-6)]Man(a1-6)[Gal(b1-4)GlcNAc(b1-3)Gal(b1-4)GlcNAc(b1-3)Gal(b1-4)GlcNAc(b1-3)Gal(b1-4)GlcNAc(b1-3)Gal(b1-4)GlcNAc(b1-2)Man(a1-3)]Man(b1-4)GlcNAc(b1-4)[Fuc(a1-6)]GlcNAc
How it was run: as §1

[6] = molecular target: Gal(b1-4)GlcNAc(b1-3)Gal(b1-4)GlcNAc(b1-3)Gal(b1-4)GlcNAc(b1-3)Gal(b1-4)GlcNAc(b1-3)Gal(b1-4)GlcNAc(b1-3)Gal(b1-4)GlcNAc(b1-2)Man(a1-3)[Gal(b1-4)GlcNAc(b1-3)Gal(b1-4)GlcNAc(b1-3)Gal(b1-4)GlcNAc(b1-3)Gal(b1-4)GlcNAc(b1-3)Gal(b1-4)GlcNAc(b1-3)Gal(b1-4)GlcNAc(b1-2)Man(a1-6)]Man(b1-4)GlcNAc(b1-4)GlcNAc
How it was run: as §1

[7] = molecular target: Gal(b1-4)GlcNAc(b1-3)Gal(b1-4)GlcNAc(b1-3)GalNAc
How it was run: as §1

[8] = molecular target: Gal(b1-4)GlcNAc(b1-3)Gal(b1-4)GlcNAc(b1-3)[Gal(b1-4)GlcNAc(b1-3)Gal(b1-4)GlcNAc(b1-6)]GalNAc
How it was run: as §1

[9] = molecular target: Gal(b1-4)GlcNAc(b1-3)Gal(b1-4)GlcNAc(b1-6)[Gal(b1-3)]GalNAc
How it was run: as §1

[10] = molecular target: Gal(b1-4)GlcNAc(b1-3)Gal(b1-4)[Fuc(a1-3)]GlcNAc(b1-3)Gal(b1-4)[Fuc(a1-3)]GlcNAc
How it was run: as §1

[11] = molecular target: Gal(b1-4)GlcNAc(b1-3)GalNAc
How it was run: as §1

[12] = molecular target: Gal(b1-4)GlcNAc(b1-3)[Fuc(a1-3)GlcNAc(b1-6)]Gal(b1-4)Glc
How it was run: as §1

[13] = molecular target: Gal(b1-4)GlcNAc(b1-3)[Gal(b1-4)GlcNAc(b1-6)]Gal(b1-4)GlcNAc
How it was run: as §1

[14] = molecular target: Gal(b1-4)GlcNAc(b1-3)[GlcNAc(b1-6)]Gal(b1-4)GlcNAc
How it was run: as §1

[15] = molecular target: Gal(b1-4)GlcNAc(b1-6)Gal(b1-4)GlcNAc
How it was run: as §1

[16] = molecular target: Gal(b1-4)GlcNAc(b1-6)GalNAc
How it was run: as §1

[17] = molecular target: Gal(b1-4)GlcNAc(b1-6)[Gal(b1-3)]GalNAc
How it was run: as §1

[18] = molecular target: Gal(b1-4)GlcNAc(b1-6)[Gal(b1-4)GlcNAc(b1-3)]GalNAc
How it was run: as §1

[19] = molecular target: Gal(b1-4)GlcNAc6P
How it was run: as §1

[20] = molecular target: Gal(b1-6)Gal
How it was run: as §1

[21] = molecular target: Gal3S(b1-3)GalNAc
How it was run: as §1

[22] = molecular target: Gal3S(b1-3)GlcNAc
How it was run: as §1

[23] = molecular target: Gal3S(b1-3)[Fuc(a1-4)]GlcNAc
How it was run: as §1

B1: LecRKVI.2 (protein)
chain: RTTTNFAFRGFNGNQSKIRIEGAAMIKPDGLLRLTDRKSNVTGTAFYHKPVRLLNRNSTNVTIRSFSTSFVFVIIPSSSSNKGFGFTFTLSPTPYRLNAGSAQYLGVFNKENNGDPRNHVFAVEFDTVQGSRDDNTDRIGNDIGLNYNSRTSDLQEPVVYYNNDDHNKKEDFQLESGNPIQALLEYDGATQMLNVTVYPARLGFKPTKPLISQHVPKLLEIVQEEMYVGFTASTGKGQSSAHYVMGWSFSSGGERPIADVLILSELPPPPPNKAKKEGLNS
- glycan array binding signal (z-score) [1]: 0.041
- glycan array binding signal (z-score) [2]: 2.11
- glycan array binding signal (z-score) [3]: -0.228
- glycan array binding signal (z-score) [4]: 2.46
- glycan array binding signal (z-score) [5]: 0.566
- glycan array binding signal (z-score) [6]: 0.722
- glycan array binding signal (z-score) [7]: 0.017
- glycan array binding signal (z-score) [8]: 0.089
- glycan array binding signal (z-score) [9]: 1.65
- glycan array binding signal (z-score) [10]: -0.313
- glycan array binding signal (z-score) [11]: -0.373
- glycan array binding signal (z-score) [12]: -0.377
- glycan array binding signal (z-score) [13]: 1.36
- glycan array binding signal (z-score) [14]: -0.347
- glycan array binding signal (z-score) [15]: -0.431
- glycan array binding signal (z-score) [16]: 1.62
- glycan array binding signal (z-score) [17]: 1.83
- glycan array binding signal (z-score) [18]: -0.085
- glycan array binding signal (z-score) [19]: -0.382
- glycan array binding signal (z-score) [20]: -0.387
- glycan array binding signal (z-score) [21]: -0.198
- glycan array binding signal (z-score) [22]: -0.231
- glycan array binding signal (z-score) [23]: -0.225
